Source: paper PMC11472058, “Trinucleotide cap analogs with triphosphate chain modifications: synthesis, properties, and evaluation as mRNA capping reagents” (Nucleic Acids Research, 2024)
Marks after values point to notes of the source that are not given here.

Tests used:
[1] = tested on: JAWS II cells; details: JAWS II; for protein production / translation of capped mRNA (in words): GLuc mRNA, comparator as worded (cap-1 RNA or ARCA-capped RNA)
[2] = biological target: T1, T7 RNA polymerase (Escherichia phage T7, UniProt P00573); assay: Capping efficiency of short RNA in in vitro transcription (co-transcriptional capping); format: biochemical
T1 construct: 6xHis (N); made in house; host or cells: E. coli BL21 (DE3) RIL
T1 sequence (P00573 whole entry): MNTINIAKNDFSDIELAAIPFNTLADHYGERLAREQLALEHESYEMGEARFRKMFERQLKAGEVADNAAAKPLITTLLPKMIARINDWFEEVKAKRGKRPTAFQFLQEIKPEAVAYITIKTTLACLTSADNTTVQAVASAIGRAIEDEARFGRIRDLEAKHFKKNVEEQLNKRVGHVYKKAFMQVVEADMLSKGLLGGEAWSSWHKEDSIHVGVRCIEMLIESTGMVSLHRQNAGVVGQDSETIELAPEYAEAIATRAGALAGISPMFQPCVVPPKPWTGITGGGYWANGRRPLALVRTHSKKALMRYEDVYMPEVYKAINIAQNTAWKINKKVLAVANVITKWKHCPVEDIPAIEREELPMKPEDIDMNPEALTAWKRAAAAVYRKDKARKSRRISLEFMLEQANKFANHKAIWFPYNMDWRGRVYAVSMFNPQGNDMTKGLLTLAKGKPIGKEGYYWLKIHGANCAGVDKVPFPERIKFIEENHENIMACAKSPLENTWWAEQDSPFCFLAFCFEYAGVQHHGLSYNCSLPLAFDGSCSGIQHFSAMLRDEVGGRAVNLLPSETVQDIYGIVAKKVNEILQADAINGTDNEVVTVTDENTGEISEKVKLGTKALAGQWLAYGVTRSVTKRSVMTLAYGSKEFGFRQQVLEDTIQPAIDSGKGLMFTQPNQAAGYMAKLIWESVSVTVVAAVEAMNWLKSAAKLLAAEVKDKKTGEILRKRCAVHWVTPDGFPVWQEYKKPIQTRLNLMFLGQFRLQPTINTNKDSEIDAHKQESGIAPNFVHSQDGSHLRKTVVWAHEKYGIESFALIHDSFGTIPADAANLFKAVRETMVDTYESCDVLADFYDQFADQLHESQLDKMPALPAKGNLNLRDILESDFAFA

[3] = tested on: A549 cells; details: for protein production / translation of capped mRNA (in words): A549, GLuc mRNA, comparator as worded (cap-1 RNA or ARCA-capped RNA)
[4] = short RNA (27 nt after trimming), Φ6.5 promoter, densitometry of PAGE, average of triplicates ± SD

Row | Compound | protein production / translation of capped mRNA (in words) [1] | Capping efficiency ([2]; short RNA, densitometry, value from one replicate only) | protein production / translation of capped mRNA (in words) [3] | Capping efficiency [2, 4] | fold higher protein levels than mRNA capped with unmodified cap-1 (m^7GpppAmpG) [1] | fold higher protein levels than mRNA capped with unmodified cap-1 (m^7GpppAmpG) ([3]; A549)
1 | CO[C@@H]1[C@H](OP(=O)(O)OC[C@H]2O[C@@H](n3cnc4c(=O)[nH]c(N)nc43)[C@H](O)[C@@H]2O)[C@@H](COP(=O)(O)CP(=O)(O)OP(=O)([O-])OC[C@H]2O[C@@H](n3c[n+](C)c4c(O)nc(N)nc43)[C@H](O)[C@@H]2O)O[C@H]1n1cnc2c(N)ncnc21 [Compound 9, m^7GppCH2pAmpG] | reduced the translational activity to the level observed for mRNAs with caps-0 | 88%^d | reduced the translational activity to the level observed for mRNAs with caps-0 |  |  | 
2 | C[n+]1cn([C@@H]2O[C@H](COP(=O)(O)OP(=O)(O)OP(=O)([O-])SC[C@H]3O[C@@H](n4cnc5c(N)ncnc54)[C@H](O)[C@@H]3OP(=O)(O)OC[C@H]3O[C@@H](n4cnc5c(=O)[nH]c(N)nc54)[C@H](O)[C@@H]3O)[C@@H](O)[C@H]2O)c2nc(N)nc(O)c21 [Compound 7, m^7Gppp^5’SApG] | not as beneficial |  | not as beneficial | 80 ± 2% |  | 
3 | C[n+]1cn([C@@H]2O[C@H](COP(=O)(O)O[P@](=O)([S-])OP(=O)(O)OC[C@H]3O[C@@H](n4cnc5c(N)ncnc54)[C@H](O)[C@@H]3OP(=O)(O)OC[C@H]3O[C@@H](n4cnc5c(=O)[nH]c(N)nc54)[C@H](O)[C@@H]3O)[C@@H](O)[C@H]2O)c2nc(N)nc(O)c21 [Compound 2, m^7GppSpApG] | significantly less protein |  | significantly less protein | 87 ± 4% |  | 
4 | C[n+]1cn([C@@H]2O[C@H](COP(=O)(O)O[P@@](=O)([S-])OP(=O)(O)OC[C@H]3O[C@@H](n4cnc5c(N)ncnc54)[C@H](O)[C@@H]3OP(=O)(O)OC[C@H]3O[C@@H](n4cnc5c(=O)[nH]c(N)nc54)[C@H](O)[C@@H]3O)[C@@H](O)[C@H]2O)c2nc(N)nc(O)c21 [Compound 1, m^7GppSpApG] | significantly less protein |  | significantly less protein | 86 ± 7% |  | 
5 | CO[C@@H]1[C@H](OP(=O)(O)OC[C@H]2O[C@@H](n3cnc4c(=O)[nH]c(N)nc43)[C@H](O)[C@@H]2O)[C@@H](COP(=O)([O-])OP(=O)(O)CP(=O)(O)OP(=O)(O)OC[C@H]2O[C@@H](n3c[n+](C)c4c(O)nc(N)nc43)[C@H](O)[C@@H]2O)O[C@H]1n1cnc2c(N)ncnc21 [Compound 16, m^7GppCH2ppAmpG] |  |  |  | 84 ± 3% |  | 
6 | CO[C@@H]1[C@H](O)[C@@H](COP(=O)(O)O[P@](=O)([S-])OP(=O)(O)OC[C@H]2O[C@@H](n3cnc4c(=O)[nH]c(N)nc43)[C@H](O)[C@@H]2O)O[C@H]1n1c[n+](C)c2c(O)nc(N)nc21 [m2^7,2′^-OGppSpG RP (D1), m2^7,2′-OGppSpG, reference compound] | translated much more efficiently than ARCA-capped RNA |  | the effect was much smaller |  |  | 
7 | CO[C@@H]1[C@H](OP(=O)(O)OC[C@H]2O[C@@H](n3cnc4c(=O)[nH]c(N)nc43)[C@H](O)[C@@H]2O)[C@@H](CSP(=O)([O-])OP(=O)(O)OP(=O)(O)OC[C@H]2O[C@@H](n3c[n+](C)c4c(O)nc(N)nc43)[C@H](O)[C@@H]2O)O[C@H]1n1cnc2c(N)ncnc21 [Compound 8, m^7Gppp^5’SAmpG] | slightly increased translational activity |  | slightly increased translational activity | 85 ± 5% | 1.1–1.3 fold | 1.1–1.3 fold
